Results published in article PMC6212790.
This is one part of the list. At the low end of the ranking the order means little.

These sequences were tested against T1, GST-Rok-C97-191 (UniProt O34857) (assay: protein binding microarray). Conditions: Rok is a gene silencer of Bacillus subtilis; high values mean tight binding; most listed sequences are background and not binding sites; double strand, one strand shown.
T1 sequence: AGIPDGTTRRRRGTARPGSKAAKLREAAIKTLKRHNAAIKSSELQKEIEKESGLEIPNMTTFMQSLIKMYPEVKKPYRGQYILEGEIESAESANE
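Further: rank score from −0.5 (least bound) to 0.5 (best bound).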

Row | Sequence | binding signal [E-score]
1 | AAAGGAGT | -0.183
2 | CGTGGGAC | -0.153
3 | CAGCTATG | -0.18
4 | CGATCCCG | -0.289
5 | GCGAAAGA | -0.208
6 | GTAAATCA | 0.105
7 | CTGGTATC | 0.138
8 | CGAGCGGC | -0.178
9 | CGGACGAA | -0.0418
10 | GCATTGAA | 0.0567
11 | CCGCTCCC | -0.437
12 | CGTCCCGA | -0.102
13 | CTCGCAAC | 0.0148
14 | GACCAAGA | -0.0371
15 | CAATATGG | -0.0224
16 | CACCCCCA | -0.145
17 | ATTACTGA | -0.0134
18 | CATCTGGA | -0.158
19 | GTTCCAAA | -0.044
20 | AATTGCAA | -0.139
21 | TCGACGAA | -0.205
22 | ATTACAAA | 0.137
23 | ACCTGCAC | -0.0374

Row | Sequence | binding signal [E-score]
24 | CAATCCTA | 0.268
25 | GGCCACCA | -0.155
26 | CTATACAC | 0.151
27 | AATCTCGG | 0.0748
28 | CGGTAGAC | -0.0972
29 | CGGAAAAC | 0.152
30 | AAAAGCCC | -0.0743
31 | GGCTGAAA | 0.0758
32 | GATAGGAA | 0.209
33 | ATGCATTG | -0.173
34 | GGCGCTAC | -0.106
35 | GGATGCCA | 0.00414
36 | GTTCCGTA | 0.194
37 | TGAACCAA | -0.0732
38 | CTCCCCCC | -0.361
39 | GGCAGTCA | -0.12
40 | ACACCTCG | -0.0583
41 | CTAATTTA | 0.305
42 | AGCTTACC | -0.119
43 | AAGGTAGC | 0.158
44 | ATCCGCGA | 0.0264
45 | ACACACCC | -0.0492
46 | CCCAGTAC | -0.0841

Row | Sequence | binding signal [E-score]
47 | AGAAAATG | 0.187
48 | ACCTGGTA | 0.221
49 | CACTATAG | 0.244
50 | AATGGCAG | -0.0554
51 | AGTATAGC | 0.121
52 | GCTCTGGA | -0.0982
53 | CCTCACCC | -0.16
54 | GACCCAAA | -0.0755
55 | AGGAAATG | -0.0248
56 | GCCAAACC | -0.202
57 | CAATTGGG | -0.181
58 | GCCCGACC | -0.355
59 | AACCAATA | 0.0959
60 | CAAGGTGA | -0.134
61 | GGCCGATA | 0.051
62 | AGACGTAA | -0.00509
63 | ATAAATTC | 0.322
64 | AGGAAGAT | 0.214
65 | GCCCGAAC | 0.169
66 | AATGACTA | 0.06
67 | AACTAAGG | 0.192
